Data taken from the supplement of paper PMC8728848.
This is one part of the list.

Columns and labels:
Assay in all cases: glycan array binding signal (z-score within array); higher = stronger binding
Conditions in all cases: glycan notation: IUPAC condensed, linker removed
[1] = molecular target: Neu5Ac(a2-3)Gal(b1-3)GlcNAc(b1-4)Gal(b1-4)Glc
In short: (§1)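 Glycan array data came from 3228 arrays in the Consortium for Functional Glycomics database, and only arrays with an available protein sequence were kept. Glycan names were put into IUPAC-condensed notation, and columns mapping to the same glycan were averaged. The binding signal is a within-array Z-score, averaged across arrays of one protein sequence run at different concentrations or buffers and across linkers. A negative Z-score can be read as non-binding.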

[2] = molecular target: Neu5Ac(a2-3)Gal(b1-3)GlcNAc(b1-6)GalNAc
In short: as §1

[3] = molecular target: Neu5Ac(a2-3)Gal(b1-3)GlcNAc6S
In short: as §1

[4] = molecular target: Neu5Ac(a2-3)Gal(b1-3)[Fuc(a1-4)]GlcNAc
In short: as §1

[5] = molecular target: Neu5Ac(a2-3)Gal(b1-3)[Fuc(a1-4)]GlcNAc(b1-3)Gal(b1-3)[Fuc(a1-4)]GlcNAc
In short: as §1

[6] = molecular target: Neu5Ac(a2-3)Gal(b1-3)[Fuc(a1-4)]GlcNAc(b1-3)Gal(b1-4)[Fuc(a1-3)]GlcNAc
In short: as §1

[7] = molecular target: Neu5Ac(a2-3)Gal(b1-3)[GlcNAc(b1-6)]GalNAc
In short: as §1

[8] = molecular target: Neu5Ac(a2-3)Gal(b1-3)[Neu5Ac(a2-6)]GalNAc
In short: as §1

[9] = molecular target: Neu5Ac(a2-3)Gal(b1-3)[Neu5Ac(a2-6)]GlcNAc(b1-3)[Fuc(a1-3)[Gal(b1-4)]GlcNAc(b1-6)]Gal(b1-4)Glc
In short: as §1

[10] = molecular target: Neu5Ac(a2-3)Gal(b1-3)]Neu5Ac(a2-3)Gal(b1-4)]GlcNAc
In short: as §1

Neu5Ac(a2-3)Gal(b1-4)Glc = molecular target: Neu5Ac(a2-3)Gal(b1-4)Glc
In short: as §1

[11] = molecular target: Neu5Ac(a2-3)Gal(b1-4)GlcNAc
In short: as §1

[12] = molecular target: Neu5Ac(a2-3)Gal(b1-4)GlcNAc(b1-2)Man
In short: as §1

[13] = molecular target: Neu5Ac(a2-3)Gal(b1-4)GlcNAc(b1-2)Man(a1-3)[GlcNAc(b1-4)][Neu5Ac(a2-3)Gal(b1-4)GlcNAc(b1-2)Man(a1-6)]Man(b1-4)GlcNAc(b1-4)GlcNAc
In short: as §1

[14] = molecular target: Neu5Ac(a2-3)Gal(b1-4)GlcNAc(b1-2)Man(a1-3)[Neu5Ac(a2-3)Gal(b1-4)GlcNAc(b1-2)Man(a1-6)]Man(b1-4)GlcNAc(b1-4)GlcNAc
In short: as §1

[15] = molecular target: Neu5Ac(a2-3)Gal(b1-4)GlcNAc(b1-2)Man(a1-3)[Neu5Ac(a2-3)Gal(b1-4)GlcNAc(b1-2)Man(a1-6)]Man(b1-4)GlcNAc(b1-4)[Fuc(a1-6)]GlcNAc
In short: as §1

[16] = molecular target: Neu5Ac(a2-3)Gal(b1-4)GlcNAc(b1-2)Man(a1-3)[Neu5Ac(a2-6)Gal(b1-4)GlcNAc(b1-2)Man(a1-6)]Man(b1-4)GlcNAc(b1-4)GlcNAc
In short: as §1

[17] = molecular target: Neu5Ac(a2-3)Gal(b1-4)GlcNAc(b1-2)[Neu5Ac(a2-3)Gal(b1-4)GlcNAc(b1-4)]Man(a1-3)[GlcNAc(b1-4)][Neu5Ac(a2-3)Gal(b1-4)GlcNAc(b1-2)[Neu5Ac(a2-3)Gal(b1-4)GlcNAc(b1-6)]Man(a1-6)]Man(b1-4)GlcNAc(b1-4)GlcNAc
In short: as §1

[18] = molecular target: Neu5Ac(a2-3)Gal(b1-4)GlcNAc(b1-2)[Neu5Ac(a2-3)Gal(b1-4)GlcNAc(b1-4)]Man(a1-3)[GlcNAc(b1-4)][Neu5Ac(a2-3)Gal(b1-4)GlcNAc(b1-4)Man(a1-6)]Man(b1-4)GlcNAc(b1-4)GlcNAc
In short: as §1

[19] = molecular target: Neu5Ac(a2-3)Gal(b1-4)GlcNAc(b1-2)[Neu5Ac(a2-3)Gal(b1-4)GlcNAc(b1-6)]Man(a1-6)[Neu5Ac(a2-3)Gal(b1-4)GlcNAc(b1-2)Man(a1-3)]Man(b1-4)GlcNAc(b1-4)GlcNAc
In short: as §1

[20] = molecular target: Neu5Ac(a2-3)Gal(b1-4)GlcNAc(b1-2)[Neu5Ac(a2-3)Gal(b1-4)GlcNAc(b1-6)]Man(a1-6)[Neu5Ac(a2-3)Gal(b1-4)GlcNAc(b1-2)Man(a1-3)][GlcNAc(b1-4)]Man(b1-4)GlcNAc(b1-4)GlcNAc
In short: as §1

[21] = molecular target: Neu5Ac(a2-3)Gal(b1-4)GlcNAc(b1-3)Gal
In short: as §1

[22] = molecular target: Neu5Ac(a2-3)Gal(b1-4)GlcNAc(b1-3)Gal(b1-3)GlcNAc
In short: as §1

[23] = molecular target: Neu5Ac(a2-3)Gal(b1-4)GlcNAc(b1-3)Gal(b1-4)GlcNAc
In short: as §1

[24] = molecular target: Neu5Ac(a2-3)Gal(b1-4)GlcNAc(b1-3)Gal(b1-4)GlcNAc(b1-2)Man(a1-3)[Neu5Ac(a2-3)Gal(b1-4)GlcNAc(b1-3)Gal(b1-4)GlcNAc(b1-2)Man(a1-6)]Man(b1-4)GlcNAc(b1-4)GlcNAc
In short: as §1

[25] = molecular target: Neu5Ac(a2-3)Gal(b1-4)GlcNAc(b1-3)Gal(b1-4)GlcNAc(b1-3)Gal(b1-4)GlcNAc
In short: as §1

[26] = molecular target: Neu5Ac(a2-3)Gal(b1-4)GlcNAc(b1-3)Gal(b1-4)GlcNAc(b1-3)Gal(b1-4)GlcNAc(b1-2)Man(a1-3)[Neu5Ac(a2-3)Gal(b1-4)GlcNAc(b1-3)Gal(b1-4)GlcNAc(b1-3)Gal(b1-4)GlcNAc(b1-2)Man(a1-6)]GalNAc
In short: as §1

[27] = molecular target: Neu5Ac(a2-3)Gal(b1-4)GlcNAc(b1-3)Gal(b1-4)GlcNAc(b1-3)GalNAc
In short: as §1

[28] = molecular target: Neu5Ac(a2-3)Gal(b1-4)GlcNAc(b1-3)Gal(b1-4)GlcNAc(b1-3)[Neu5Ac(a2-3)Gal(b1-4)GlcNAc(b1-3)Gal(b1-4)GlcNAc(b1-6)]GalNAc
In short: as §1

[29] = molecular target: Neu5Ac(a2-3)Gal(b1-4)GlcNAc(b1-3)Gal(b1-4)GlcNAc(b1-6)[Gal(b1-3)]GalNAc
In short: as §1

[30] = molecular target: Neu5Ac(a2-3)Gal(b1-4)GlcNAc(b1-3)Gal(b1-4)[Fuc(a1-3)]GlcNAc
In short: as §1

[31] = molecular target: Neu5Ac(a2-3)Gal(b1-4)GlcNAc(b1-3)GalNAc
In short: as §1

[32] = molecular target: Neu5Ac(a2-3)Gal(b1-4)GlcNAc(b1-3)[Neu5Ac(a2-3)Gal(b1-4)GlcNAc(b1-6)]GalNAc
In short: as §1

[33] = molecular target: Neu5Ac(a2-3)Gal(b1-4)GlcNAc(b1-6)GalNAc
In short: as §1

[34] = molecular target: Neu5Ac(a2-3)Gal(b1-4)GlcNAc(b1-6)[Gal(b1-3)]GalNAc
In short: as §1

[35] = molecular target: Neu5Ac(a2-3)Gal(b1-4)GlcNAc(b1-6)[Neu5Ac(a2-3)Gal(b1-3)]GalNAc
In short: as §1

[36] = molecular target: Neu5Ac(a2-3)Gal(b1-4)GlcNAc6S
In short: as §1

[37] = molecular target: Neu5Ac(a2-3)Gal(b1-4)[Fuc(a1-3)]GlcNAc
In short: as §1

[38] = molecular target: Neu5Ac(a2-3)Gal(b1-4)[Fuc(a1-3)]GlcNAc(b1-2)Man
In short: as §1

[39] = molecular target: Neu5Ac(a2-3)Gal(b1-4)[Fuc(a1-3)]GlcNAc(b1-3)Gal
In short: as §1

[40] = molecular target: Neu5Ac(a2-3)Gal(b1-4)[Fuc(a1-3)]GlcNAc(b1-3)Gal(b1-4)GlcNAc
In short: as §1

[41] = molecular target: Neu5Ac(a2-3)Gal(b1-4)[Fuc(a1-3)]GlcNAc(b1-3)Gal(b1-4)[Fuc(a1-3)]GlcNAc(b1-3)Gal(b1-4)[Fuc(a1-3)]GlcNAc
In short: as §1

[42] = molecular target: Neu5Ac(a2-3)Gal(b1-4)[Fuc(a1-3)]GlcNAc(b1-3)GalNAc
In short: as §1

[43] = molecular target: Neu5Ac(a2-3)Gal(b1-4)[Fuc(a1-3)]GlcNAc(b1-6)[Gal(b1-3)]GalNAc
In short: as §1

[44] = molecular target: Neu5Ac(a2-3)Gal(b1-4)[Fuc(a1-3)]GlcNAc(b1-6)[Neu5Ac(a2-3)Gal(b1-3)]GalNAc
In short: as §1

B1: SSR1 (Sclerotium rolfsii), A0A0M3KL30 (protein)
chain: TYKITVRVYQTNPDAFFHPVEKTVWKYANGGTWTITDDQHVLTMGGSGTSGTLRFHADNGESFTATFGVHNYKRWCDIVTNLAADETGMVINQQYYSQKNREEARERQLSNYQVKNAKGRNFQIVYTEAEGNDLHANLIIG
glycan array binding signal (z-score) [1]: -0.543
glycan array binding signal (z-score) [2]: 0.019
glycan array binding signal (z-score) [3]: -0.325
glycan array binding signal (z-score) [4]: -0.341
glycan array binding signal (z-score) [5]: -0.325
glycan array binding signal (z-score) [6]: -0.319
glycan array binding signal (z-score) [7]: 0.858
glycan array binding signal (z-score) [8]: 0.97
glycan array binding signal (z-score) [9]: -0.329
glycan array binding signal (z-score) [10]: -0.342
glycan array binding signal (z-score) (Neu5Ac(a2-3)Gal(b1-4)Glc): -0.327
glycan array binding signal (z-score) [11]: -0.337
glycan array binding signal (z-score) [12]: -0.313
glycan array binding signal (z-score) [13]: -0.342
glycan array binding signal (z-score) [14]: -0.321
glycan array binding signal (z-score) [15]: -0.313
glycan array binding signal (z-score) [16]: -0.342
glycan array binding signal (z-score) [17]: -0.316
glycan array binding signal (z-score) [18]: -0.332
glycan array binding signal (z-score) [19]: -0.523
glycan array binding signal (z-score) [20]: -0.336
glycan array binding signal (z-score) [21]: -0.354
glycan array binding signal (z-score) [22]: -0.325
glycan array binding signal (z-score) [23]: -0.321
glycan array binding signal (z-score) [24]: -0.286
glycan array binding signal (z-score) [25]: -0.342
glycan array binding signal (z-score) [26]: -0.233
glycan array binding signal (z-score) [27]: 0.407
glycan array binding signal (z-score) [28]: -0.322
glycan array binding signal (z-score) [29]: 1.06
glycan array binding signal (z-score) [30]: -0.336
glycan array binding signal (z-score) [31]: -0.312
glycan array binding signal (z-score) [32]: -0.326
glycan array binding signal (z-score) [33]: -0.334
glycan array binding signal (z-score) [34]: 0.773
glycan array binding signal (z-score) [35]: 1.08
glycan array binding signal (z-score) [36]: -0.343
glycan array binding signal (z-score) [37]: -0.34
glycan array binding signal (z-score) [38]: -0.374
glycan array binding signal (z-score) [39]: -0.342
glycan array binding signal (z-score) [40]: -0.324
glycan array binding signal (z-score) [41]: -0.279
glycan array binding signal (z-score) [42]: -0.293
glycan array binding signal (z-score) [43]: 0.075
glycan array binding signal (z-score) [44]: -0.031
